Results taken from PubChem BioAssay AID686979 (National Center for Advancing Translational Sciences (NCATS), 2013).
The campaign covered roughly 420,000 compounds. About 50,000 (12%) were called active. The shares of active, inactive and inconclusive entries below differ from those in the screen. The call rests on the fitted dose curve; in most records, active means well fitted inhibition curve with a large enough effect; inconclusive means small, poorly fitted or top-dose-only effect; inactive means flat fitted curve, though single readings scatter. No potency is given beside an inconclusive call; the fits are too rough.
On the % scale 0 is the no-effect control and ±100 the full control effect; potency means the concentration at half of the fitted maximal effect; tags describe the fitted curve by direction and shape.

Test: qHTS for Inhibitors of human tyrosyl-DNA phosphodiesterase 1 (TDP1): qHTS in cells in presence of CPT; further: nearly all actives have a fitted effect of over 55% in size
Settings: chicken DT40 Tdp1-/-;hTDP1 cells + 20 nM CPT, ATP luminescence, 48 h; activity change, negative = growth inhibition: at 46.2 µM (top of the series) unless noted
In short: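 Cell growth measured by CellTiter-Glo luminescence after a minimum 48 h, 37 C compound exposure with 20 nM CPT in Tdp1-knockout DT40 cells stably expressing hTDP1, seeded 400/well; qHTS titration format.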
In the case of `COc1ccccc1NC(=O)Nc1nc(CC(=O)NCc2c(F)cccc2F)cs1`, the Potency is reported as inconclusive [inhibitor, single point]. For `COc1cccc(C2CC(OCCF)=CC(=O)O2)c1` (stereo not given), the Potency was inconclusive [inhibitor, full curve, poor fit]. In the case of `O=C(Cc1ccc([N+](=O)[O-])cc1)Nc1ccc(Cl)cc1`, the Potency is reported as inconclusive [inhibitor, single point]. With `COc1cccc(-n2cc(CNCc3c(C(=O)N(C)C)nc4ccc(Cl)cn34)cn2)c1` the Potency was inconclusive [inhibitor, single point]. In the case of `COCCNc1nc2nonc2nc1N(C)Cc1cccc2cnccc12`, the Potency is reported as “inactive”. With `COc1ccc(N(C(=O)c2ccc3c(c2)OCO3)C2C=CS(=O)(=O)C2)c(OC)c1` (stereo not given) the Potency was “inactive”. For `CNC[C@@H]1Oc2c(NC(=O)Nc3ccccc3)cccc2C(=O)N([C@@H](C)CO)C[C@H]1C`, the Potency was “inactive”. In the case of `O=C(Nc1cccc2cccnc12)c1cc(F)c(F)cc1Cl`, the Potency is reported as inconclusive [inhibitor, single point]. In the case of `Cc1nc(-c2cccc(S(=O)(=O)N3CCC(C(=O)NCc4ccccc4)CC3)c2)no1`, the Potency is reported as inconclusive [inhibitor, single point]. With `COc1ccc(/C=N/n2c(=O)[nH]c3c([nH]c4ccc(Br)cc43)c2=O)cc1CN1CCOCC1` the Potency was inconclusive [inhibitor, single point]. For `CCc1ccc(-c2cc(C(=O)N/N=C/c3ccccn3)[nH]n2)cc1`, the Potency was inconclusive [inhibitor, single point]. For `CCC(C(=O)NCCN1CCOCC1)n1c2ccccc2c2nc(=O)cc(C)n21` (stereo not given), the Potency was “inactive”. For `CN(CC(=O)N1CCN(c2ccccn2)CC1)S(=O)(=O)c1ccccc1`, the Potency was “inactive”. In the case of `Cc1cccc2cc(CN(Cc3cccs3)S(=O)(=O)c3ccc4c(c3)OCCO4)c(=O)[nH]c12`, the Potency is reported as inconclusive [inhibitor, single point]. With `Cc1cc(C)cc(OCC(=O)N2CCc3ccccc3C2)c1` the Potency was “inactive”. With `CN(C(=O)c1cccc(NC(=O)Cc2ccc(NC(=O)C3CCCN(C(=O)CCc4ccccc4)C3)cc2)c1)C1CCCCC1` (stereo not given) the Potency was inconclusive [inhibitor, single point]. In the case of `CCCN(C(=O)Cn1cnc2sc(C)c(S(=O)(=O)N3CCN(c4ncccn4)CC3)c2c1=O)c1cccc(C)c1`, the Potency is reported as “inactive”. For `CN1C(=O)C(CC(=O)NC2CCCCC2)SC1=Nc1ccccc1` (stereo not given), the Potency was inconclusive [inhibitor, single point]. In the case of `CCNC(=O)C1(C)CCCN(Cc2ccc(Oc3ccccc3)cc2)C1` (stereo not given), the Potency is reported as active: 13 µM. In the case of `O=C(Nc1ccc(N2CCCCC2)c(Cl)c1)c1ccc(N2CCOCC2)c([N+](=O)[O-])c1`, the Potency is reported as active: 18.4 µM. For `CCOC(=O)c1csc(N/N=C2\CCc3ccccc32)n1`, the Potency was inconclusive [inhibitor, partial curve]. For `COc1cccc(NC(=O)c2nnn(Cc3cccc(C(F)(F)F)c3)c2N)c1`, the activity change, negative = growth inhibition was inconclusive: -30.2% [inhibitor]. With `CC(C)(C)OC(=O)C[C@H]1C/C=C\C[C@@H](CC(=O)N(CCO)Cc2ccccc2)C(=O)N2CCC[C@H]2COC1=O` the Potency was active: 18.4 µM. With `COc1ccccc1/C=C1\SC(=S)N(CCC(=O)NNC(=O)c2ccccc2O)C1=O` the Potency was inconclusive [inhibitor, single point]. With `O=C(CSc1cc(Cl)ccc1Cl)NC1CCCc2ccccc21` (stereo not given) the Potency was inconclusive [inhibitor, single point]. With `Cc1onc(-c2c(Cl)cccc2Cl)c1C(=O)N1CCCc2ccccc21` the Potency was active: 20.6 µM. With `COc1ccc(C(=O)N2CCc3cc(OC)c(OC)cc3C2c2ccc(OC)c(OC)c2)cc1` (stereo not given) the Potency was inconclusive [inhibitor, single point]. In the case of `CS(=O)(=O)N1CCCC(c2nc(-c3ccc(S(=O)(=O)NCc4ccccc4)cc3)no2)C1` (stereo not given), the Potency is reported as active: 13 µM. With `COc1ccc(-n2c(CCc3ccccc3)n[nH]c2=S)cc1` the Potency was inconclusive [inhibitor, partial curve]. In the case of `COc1cc(C2=NOC(C(=O)Nc3ccc(C(C)=O)cc3)C2)cc(OC)c1OC` (stereo not given), the Potency is reported as “inactive”. With `CCOC(=O)c1c(C)nc2c(c1-c1ccc(OC)c(OC)c1)C(=O)c1ccccc1-2` the Potency was active: 23.1 µM. With `CC(=O)c1cccc(CN2CCC(CO)(CCOc3ccccc3)CC2)c1` the Potency was “inactive”. With `Cc1cccc(CN2C(=O)c3ccccc3S(=O)(=O)c3ccc(C(=O)N4CCCC4)cc32)c1` the Potency was inconclusive [inhibitor, single point]. In the case of `CCC1CCc2sc(C(=O)NCc3ccccn3)cc2C1` (stereo not given), the Potency is reported as active: 14.6 µM. In the case of `Cc1c(-c2ccccc2)nc(N)c(C#N)c1-c1cccs1`, the Potency is reported as “inactive”. For `O=C(NCc1ccco1)c1cc([N+](=O)[O-])cc([N+](=O)[O-])c1`, the Potency was inconclusive [inhibitor, single point]. For `COc1ccc(C(=O)On2c(-c3ccc(Br)cc3)nc3ccccc3c2=O)cc1`, the Potency was inconclusive [inhibitor, single point]. In the case of `COc1ccc(S(=O)(=O)N2CCCC(C(=O)N3CCN(C)CC3)C2)cc1Cl` (stereo not given), the Potency is reported as “inactive”. With `O=C(COc1ccc(Cl)cc1)Nc1nc(-c2ccc(S(=O)(=O)N3CCOCC3)cc2)cs1` the Potency was inconclusive [inhibitor, partial curve]. For `COCC1=C(C(=O)OC)C(c2ccco2)n2ncnc2N1` (stereo not given), the Potency was “inactive”. In the case of `Cc1c(C(=O)NN2CCCCC2)nn(-c2ccc(Cl)cc2Cl)c1-c1ccc(Cl)cc1`, the Potency is reported as inconclusive [inhibitor, single point]. For `CCCCC(C(=O)O)C(C)CC(=O)NNC(=O)c1ccco1` (stereo not given), the Potency was “inactive”. In the case of `COc1ccc(NC(=O)CN(C)C(=O)c2cc(-c3ccccc3)nc3ccccc23)cc1`, the Potency is reported as inconclusive [inhibitor, partial curve]. For `Cc1ccccc1NC(=O)OCc1cccnc1Oc1ccc(Cl)cc1`, the Potency was “inactive”. In the case of `Cc1cccc(CNc2ncnc3ccc(-c4ccoc4)cc23)c1`, the Potency is reported as active: 20.6 µM. With `CC(=O)c1sc(NC(=O)C2CC(=O)N(Cc3ccco3)C2)nc1-c1ccccc1` (stereo not given) the Potency was “inactive”. For `Cn1cccc1C(=O)N1CCC2(CCCN(c3ccccc3)C2)CC1`, the Potency was inconclusive [inhibitor, single point]. With `Cc1ccccc1OCC(=O)N(Cc1nnc(-c2ccc(Cl)cc2)o1)C(C)C` the Potency was inconclusive [inhibitor, single point]. In the case of `COc1ccccc1N1CCN(C(=O)C2CCN(C(=O)c3ccccc3C)CC2)CC1`, the Potency is reported as “inactive”. In the case of `COc1ccc(C(O)c2nc(-c3cccc(NC(C)=O)c3)cs2)cc1` (stereo not given), the Potency is reported as inconclusive [inhibitor, single point]. In the case of `CCN(CC)S(=O)(=O)c1ccc(NC(=O)[C@H](CCSC)N2Cc3ccccc3C2=O)cc1`, the Potency is reported as inconclusive [inhibitor, single point]. For `Cc1ccc(S(=O)(=O)c2nnn3c2nc(N2CCCCC2)c2sccc23)cc1`, the Potency was “inactive”. In the case of `CC(C)(C)S(=O)N1Cc2cc(C(=O)N3CCc4ccccc4C3)nc(-c3cccc(-c4cccnc4)c3)c2[C@@H]1CCO` (stereo not given in full), the Potency is reported as inconclusive [inhibitor, single point]. With `CC(Cc1cccnc1)NC(=O)c1cc(COc2ccc(F)cc2F)on1` (stereo not given) the Potency was active: 16.4 µM. In the case of `CCOc1ccc(/C=C2\SC(=S)NC2=O)cc1OC`, the Potency is reported as inconclusive [inhibitor, single point]. With `Clc1ccc(C[n+]2cc(-c3ccccc3)n3c2CCC3)cc1Cl` the Potency was active: 6.51 µM. For `Cc1ccc(NS(=O)(=O)c2cc(NC(=O)C(C)Oc3ccccc3)ccc2C)c(C)c1` (stereo not given), the Potency was inconclusive [inhibitor, single point]. For `O=C(Nc1ccccc1)c1nc[nH]c1C(=O)NCCN(CCNC(=O)c1[nH]cnc1C(=O)Nc1ccccc1)CCNC(=O)c1[nH]cnc1C(=O)Nc1ccccc1`, the Potency was inconclusive [inhibitor, single point]. For `N#Cc1ccc(OCC(=O)NNC(=S)NC2CCCCC2)cc1`, the Potency was inconclusive [inhibitor, single point]. With `O=C(Cc1ccccc1)NCCS(=O)(=O)N1CCN(c2ccccc2)CC1` the Potency was “inactive”. For `COC(=O)c1sccc1NC(=O)CN(C)NS(=O)(=O)c1ccc([N+](=O)[O-])cc1`, the Potency was inconclusive [inhibitor, single point]. With `COC(=O)c1cccc(NC(=S)N2CCN(C)CC2)c1` the Potency was “inactive”. In the case of `Cc1cccc(Cn2c(-c3cccs3)nc3ccccc32)c1`, the Potency is reported as “inactive”. In the case of `CCCN1CCc2c(sc(NC(=O)CCS(=O)(=O)c3ccccc3)c2C(N)=O)C1`, the Potency is reported as inconclusive [inhibitor, single point]. In the case of `CCOc1ccc(Cn2c(CNS(=O)(=O)c3cccs3)nc3cccnc32)cc1`, the Potency is reported as inconclusive [inhibitor, single point]. In the case of `O=C(NCc1cccnc1)c1ccc(COc2ccc(Cl)cc2Cl)o1`, the Potency is reported as inconclusive [inhibitor, partial curve]. With `CSc1nnc(NC(=O)c2nc(S(=O)(=O)Cc3ccc(C)cc3)ncc2Cl)s1` the Potency was active: 6.51 µM. With `Cc1oc(-c2cccs2)nc1CS(=O)CC(=O)NCCc1ccccc1` (stereo not given) the Potency was inconclusive [inhibitor, single point]. For `CSc1cccc(NC(=O)C2CCN(S(=O)(=O)c3ccc(F)cc3)CC2)c1`, the Potency was inconclusive [inhibitor, single point]. For `COc1ccc(S(=O)(=O)N2CCCCCC2)cc1N(C)S(=O)(=O)c1ccccc1`, the Potency was inconclusive [inhibitor, single point].
